# Data: article PMC4336329 (PLoS ONE, 2015)
# Screen size: about 310,000 compounds; about 2,200 (0.71%) showed an effect of 50% or more. The effect is printed as a negative number. This is one part of the list.
# Target: human ether-à-go-go-related gene (hERG) potassium channel (human, UniProt Q12809)
# Assay: primary screen, population patch clamp on CHO cells stably expressing hERG
# Sequence of human ether-à-go-go-related gene (hERG) potassium channel (Q12809 whole entry, looked up): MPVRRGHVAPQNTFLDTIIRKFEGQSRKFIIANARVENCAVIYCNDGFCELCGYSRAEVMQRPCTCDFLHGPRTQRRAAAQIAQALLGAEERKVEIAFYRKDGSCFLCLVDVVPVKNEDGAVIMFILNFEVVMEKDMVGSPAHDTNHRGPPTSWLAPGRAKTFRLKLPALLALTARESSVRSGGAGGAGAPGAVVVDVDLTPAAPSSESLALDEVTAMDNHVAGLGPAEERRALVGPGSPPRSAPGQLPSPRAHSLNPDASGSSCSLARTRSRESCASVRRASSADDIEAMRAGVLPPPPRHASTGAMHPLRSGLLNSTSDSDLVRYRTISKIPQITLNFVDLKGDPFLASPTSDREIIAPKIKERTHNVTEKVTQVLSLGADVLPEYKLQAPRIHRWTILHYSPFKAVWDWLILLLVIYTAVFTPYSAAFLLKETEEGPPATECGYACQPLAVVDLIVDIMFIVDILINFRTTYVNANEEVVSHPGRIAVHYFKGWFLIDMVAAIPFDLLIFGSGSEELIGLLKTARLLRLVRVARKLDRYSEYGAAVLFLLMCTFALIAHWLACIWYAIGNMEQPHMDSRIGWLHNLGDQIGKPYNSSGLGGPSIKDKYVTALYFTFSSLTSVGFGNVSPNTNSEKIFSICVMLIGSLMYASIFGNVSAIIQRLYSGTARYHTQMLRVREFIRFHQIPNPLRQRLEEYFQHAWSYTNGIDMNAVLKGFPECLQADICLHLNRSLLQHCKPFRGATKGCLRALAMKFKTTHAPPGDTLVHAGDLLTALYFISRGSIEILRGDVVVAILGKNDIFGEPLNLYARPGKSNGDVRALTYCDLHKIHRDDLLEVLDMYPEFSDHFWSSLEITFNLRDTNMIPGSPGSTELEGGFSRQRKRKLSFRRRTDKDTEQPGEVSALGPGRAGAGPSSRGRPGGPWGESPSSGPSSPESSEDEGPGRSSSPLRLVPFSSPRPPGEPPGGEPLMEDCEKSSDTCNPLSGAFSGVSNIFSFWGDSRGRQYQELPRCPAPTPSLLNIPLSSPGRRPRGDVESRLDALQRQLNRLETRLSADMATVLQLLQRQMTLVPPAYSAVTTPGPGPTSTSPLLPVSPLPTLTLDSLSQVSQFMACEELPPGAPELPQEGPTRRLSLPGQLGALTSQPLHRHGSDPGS
row,Compound,"hERG current change (%, negative = inhibition) at 1uM"
1,O=C(NN1CCOCC1)c1cc(-c2cccs2)nc2ccccc12,2.39%
2,O=C(Nc1nc(-c2cccs2)cs1)c1ccc(S(=O)(=O)N2CCCC2)cc1,10.3%
3,Cc1ccc(S(=O)(=O)CCC(=O)N(C)c2c(N)n(Cc3ccccc3)c(=O)[nH]c2=O)cc1,10.9%
4,Cc1ccc2c(c1C)NC(C)CC2C.Cl (centres unmarked),8.06%
5,CCn1c(C)nc2cc(C(=O)NNC(=S)Nc3ccc(OC)cc3)ccc21,15.3%
6,COc1cc2c(cc1OC)CN(C(=O)CCOc1ccccc1)CC2,14.5%
7,Cc1ccc(OC(C)C(=O)Nc2ccc3c(c2)n(C)c(=O)n3C)c(C)c1 (centres unmarked),11.9%
8,CCN(CC)Cc1oc(-c2ccccc2)cc1C(=O)O,8.71%
9,CC1Cc2ccccc2N1C(=O)CSc1nc(-c2ccco2)cc(C(F)(F)F)n1 (centres unmarked),-6.38%
10,Cc1ccccc1C(=O)Nc1ccc(C(=O)N/N=C/c2ccc(F)cc2)cc1,18.7%
11,FC(F)(F)c1cccc(NC(=S)NCCc2ccccn2)c1,2.28%
12,C1=CCN(Cc2ccccc2)C1,11.4%
13,O=C(NC1CCN(C(=O)NCc2ccccc2)CC1)c1ccc(F)cc1,3.75%
14,CCn1c(CNC(=O)COc2c(C)cccc2C)nnc1SCC(=O)Nc1nccs1,-29.4%
15,CCNC(=O)c1cccc(S(=O)(=O)N2CCCCCC2)c1,5.61%
16,CC(C)[C@]12O[C@H]1[C@@H]1O[C@]13[C@]1(O[C@H]1C[C@H]1C4=C(CC[C@@]13C)C(=O)OC4)[C@@H]2O,7.15%
17,CCOC(=O)C1CCCN(C(=O)Cn2c(=O)c3cccn3c3cccnc32)C1 (centres unmarked),16.8%
18,O=C(O)COc1cccc(NC(=O)c2ccccc2)c1,6%
19,COc1ccc(CNC(=O)C2CCN(S(=O)(=O)c3cccc4nsnc34)CC2)cc1,14.5%

row,Compound,"hERG current change (%, negative = inhibition) at 1uM"
1,CC(=O)c1cccc(NC(=S)NC(=O)c2ccccc2C)c1,-0.276%
2,Cn1nc(-c2ccc(Cl)cc2)c2cc(C(=O)NCCCN3CCCC3)sc21,-9.08%
3,COc1cc(CN2CCN(C(c3ccccc3)c3ccccc3)CC2)cc(OC)c1OC.O=C(O)C(=O)O,11.7%
4,CCOc1ccccc1N1CCN(C(=O)c2ccc(OCC(=O)N3CCOCC3)c(OC)c2)CC1,4.66%
5,COc1ccc(OC)c(S(=O)(=O)N2CCC(C(=O)N(C)Cc3ccccc3)CC2)c1,3.15%
6,Cc1cc(C(=O)N2CCc3ccccc32)c2ccccc2n1,13.5%
7,CCN(CC(=O)Nc1c(C(=O)OC)[nH]c2ccc(C)cc12)c1ccc2c(c1)OCO2,11.6%
8,COc1ccc2[nH]c(=O)c(CN(C)C(=O)COc3ccccc3)cc2c1,17.8%
9,CCC(C(=O)Nc1ccccc1Cl)n1nc(C)c2c(C)n(-c3ccccc3)nc2c1=O (centres unmarked),8.4%
10,COCc1cc(C)n(CC(=O)Nc2ccc3c(c2)OCO3)c(=O)c1C#N,16.2%
11,CN(C)c1ccc(NC(=O)CN2CCC(O)(c3ccccc3)CC2)cc1,1.15%
12,COc1ccc(CN(C)C(C)C(=O)Nc2ccc(S(=O)(=O)N3CCCC3)cc2)c(OC)c1OC (centres unmarked),14.1%
13,Cc1ccc(C)c(OCc2cc(C(=O)N3C[C@@H](C)O[C@@H](C)C3)no2)c1,7.44%
14,CC(C)n1cc(CN2CCC(Oc3ccc(C(=O)N4CCCC4)cc3)CC2)cn1,3.44%
15,CCC(=O)Nc1ccccc1Nc1cc(C#N)c(C#N)cc1[N+](=O)[O-],9.3%
16,COc1cccc(N(CC(=O)NCc2cccnc2)S(C)(=O)=O)c1,8.02%
17,Oc1ccc(/C=N/Nc2ncc(Cl)cc2Cl)cc1,6.99%
18,O=C(Nc1ncn[nH]1)C(F)(F)C(F)F,-1.52%
19,O=C(CN1CCOCC1)Nc1ncc(Br)cc1Br,4.34%

row,Compound,"hERG current change (%, negative = inhibition) at 1uM"
1,O=C1CC(c2ccccc2Cl)Cc2c1cnn2-c1nc2ccccc2s1 (centres unmarked),16.3%
2,O=C(CN1C(=O)c2ccccc2S1(=O)=O)N1CCc2ccccc2C1,-5.32%
3,O=C(C1CCN(S(=O)(=O)c2cccnc2)CC1)N1CCN(c2cccc(Cl)c2)CC1,-6.13%
4,O=S(=O)(/N=C(/Nc1ccc(F)cc1F)c1ccc(Cl)cc1)c1ccccc1,0.585%
5,Cc1cccc(C2CC(c3ccc(Cl)cc3)Nc3nc(N)nn32)c1 (centres unmarked),-1%
6,O=C1CN(c2nc(-c3ccccc3)c3cc(Br)ccc3n2)c2ccccc2N1,11.2%
7,O=C1c2cccc3cccc(c23)N1Cc1cccc(F)c1,21.6%
8,COc1ccc(-n2c(C)cc(C(=O)CN3C(=O)NC4(CCCc5sccc54)C3=O)c2C)cc1 (centres unmarked),4.27%
9,O=C(CCNc1ccc(Cc2ccncc2)cc1)c1cccc([N+](=O)[O-])c1,5.39%
10,CN(C)CCSc1nc(N)c2c3c(sc2n1)CN(C)CC3,5.58%
11,O=C(N=Nc1c(O)[nH]c2ccc([N+](=O)[O-])cc12)c1cc(-c2ccccc2Cl)nc2ccccc12,7.27%
12,CC1=NOC(=O)/C1=C/c1ccc(O)cc1,16.7%
13,COc1ccccc1CNC(=O)C1CCC(=O)N(CCCN2CCCC2=O)C1 (centres unmarked),13.2%
14,CCCN1C(=O)CC(c2ccco2)Sc2ccccc21 (centres unmarked),12.5%
15,Cc1noc(C)c1-c1ccc2ncnc(NCC3CCCCN3C)c2c1 (centres unmarked),17.7%
16,CCOc1ncccc1C(=O)OCc1ccc(C(=O)OC)cc1,9.99%
17,Cc1cc(C)n(C)c(=O)c1C#N,12.3%
18,COCCN(C(=O)COC(=O)/C=C/c1ccc2c(c1)OCO2)c1c(N)n(Cc2ccccc2)c(=O)[nH]c1=O,11.7%
